In PMC9911399, “Two distinct binding modes provide the RNA-binding protein RbFox with extraordinary sequence specificity”:
Substitutions are numbered along the chain they refer to; changes in the protein carry UniProt numbers. The list shows a part of the results.

B1: GCAGAAU (DNA:RNA)
RNA: GGGAGACCGGAAUUCAGAUUGUCCGCAGAAUUUAAAUCCCGUCGUAGCCACCA
DNA 1: CAATCTGAATTCCGGTCTCCC
DNA 2: TGGTGGCTACGACGGGATT
B2: UUACGCA (DNA:RNA)
RNA: B1 RNA with G25U, C26U, G28C, A29G, A30C, U31A
DNA 1: CAATCTGAATTCCGGTCTCCC
DNA 2: TGGTGGCTACGACGGGATT
B3: AAAGGUG (DNA:RNA)
RNA: B1 RNA with G25A, C26A, A29G, A30U, U31G
DNA 1: CAATCTGAATTCCGGTCTCCC
DNA 2: TGGTGGCTACGACGGGATT
B4: CGUAUCU (DNA:RNA)
RNA: B1 RNA with G25C, C26G, A27U, G28A, A29U, A30C
DNA 1: CAATCTGAATTCCGGTCTCCC
DNA 2: TGGTGGCTACGACGGGATT
B5: CUCCAUA (DNA:RNA)
RNA: B1 RNA with G25C, C26U, A27C, G28C, A30U, U31A
DNA 1: CAATCTGAATTCCGGTCTCCC
DNA 2: TGGTGGCTACGACGGGATT
B6: AAACGGC (DNA:RNA)
RNA: B1 RNA with G25A, C26A, G28C, A29G, A30G, U31C
DNA 1: CAATCTGAATTCCGGTCTCCC
DNA 2: TGGTGGCTACGACGGGATT
B7: CUGUCGA (DNA:RNA)
RNA: GGGAGACCGGAAUUCAGAUUGUCCCUGUCGAUUAAAUCCCGUCGUAGCCACCA
DNA 1: CAATCTGAATTCCGGTCTCCC
DNA 2: TGGTGGCTACGACGGGATT
B8: AAUCGUG (DNA:RNA)
RNA: GGGAGACCGGAAUUCAGAUUGUCCAAUCGUGUUAAAUCCCGUCGUAGCCACCA
DNA 1: CAATCTGAATTCCGGTCTCCC
DNA 2: TGGTGGCTACGACGGGATT
B9: GAGCUCA (DNA:RNA)
RNA: B8 RNA with A25G, U27G, G29U, U30C, G31A
DNA 1: CAATCTGAATTCCGGTCTCCC
DNA 2: TGGTGGCTACGACGGGATT
B10: CUUGAGU (DNA:RNA)
RNA: B7 RNA with G27U, U28G, C29A, A31U
DNA 1: CAATCTGAATTCCGGTCTCCC
DNA 2: TGGTGGCTACGACGGGATT
B11: AUGAAGU (DNA:RNA)
RNA: B7 RNA with C25A, U28A, C29A, A31U
DNA 1: CAATCTGAATTCCGGTCTCCC
DNA 2: TGGTGGCTACGACGGGATT
B12: UACAAAG (DNA:RNA)
RNA: B8 RNA with A25U, U27C, C28A, G29A, U30A
DNA 1: CAATCTGAATTCCGGTCTCCC
DNA 2: TGGTGGCTACGACGGGATT
B13: ACAAGCG (DNA:RNA)
RNA: B8 RNA with A26C, U27A, C28A, U30C
DNA 1: CAATCTGAATTCCGGTCTCCC
DNA 2: TGGTGGCTACGACGGGATT
B14: CGUAGGG (DNA:RNA)
RNA: B8 RNA with A25C, A26G, C28A, U30G
DNA 1: CAATCTGAATTCCGGTCTCCC
DNA 2: TGGTGGCTACGACGGGATT
B15: CGAGGUC (DNA:RNA)
RNA: B8 RNA with A25C, A26G, U27A, C28G, G31C
DNA 1: CAATCTGAATTCCGGTCTCCC
DNA 2: TGGTGGCTACGACGGGATT
B16: AGAUUAA (DNA:RNA)
RNA: B7 RNA with C25A, U26G, G27A, C29U, G30A
DNA 1: CAATCTGAATTCCGGTCTCCC
DNA 2: TGGTGGCTACGACGGGATT
B17: GUUAUCA (DNA:RNA)
RNA: B7 RNA with C25G, G27U, U28A, C29U, G30C
DNA 1: CAATCTGAATTCCGGTCTCCC
DNA 2: TGGTGGCTACGACGGGATT
B18: GCUUGCU (DNA:RNA)
RNA: B1 RNA with A27U, G28U, A29G, A30C
DNA 1: CAATCTGAATTCCGGTCTCCC
DNA 2: TGGTGGCTACGACGGGATT
B19: GUUCGGU (DNA:RNA)
RNA: B8 RNA with A25G, A26U, U30G, G31U
DNA 1: CAATCTGAATTCCGGTCTCCC
DNA 2: TGGTGGCTACGACGGGATT
B20: CUCCCUU (DNA:RNA)
RNA: B7 RNA with G27C, U28C, G30U, A31U
DNA 1: CAATCTGAATTCCGGTCTCCC
DNA 2: TGGTGGCTACGACGGGATT

What follows are binders tested against T1, RBFOX1 RRM (Homo sapiens, UniProt Q9NWB1 109-208) (assay: EMSA; HiTS-Eq, 1 nM pool, 10 min; buffer printed only for the single-RNA assays: 10 mM Tris pH 7.5, 150 mM NaCl, 3.4 mM EDTA, 0.001% NP-40, 30 C). Details: tags: His6 N-terminal (pET28a); label: 5' 32P.
T1 sequence: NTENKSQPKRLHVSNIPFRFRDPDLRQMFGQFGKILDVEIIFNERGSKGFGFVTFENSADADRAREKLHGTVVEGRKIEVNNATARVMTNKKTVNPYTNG
How it was run: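 Purified RbFox RRM (wild type or mutant) was equilibrated for 10 min in 50 µL with 1 nM of a 5′-radiolabelled pool of RNA with 7 randomized nucleotides, its flanks annealed to DNA oligonucleotides, across increasing protein concentrations. Free RNA was separated by 8% native PAGE, excised, reverse-transcribed, PCR-barcoded and sequenced on an Illumina HiSeq 2500. Relative association constants came from read-count changes of each variant against the control reaction, normalised to the cognate motif.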
B1 was tested, and the binding signal was 0.0111 KA relative to UGCAUGU.
B2 was tested, and the binding signal was 0.0107 KA relative to UGCAUGU.
For B3, the binding signal was 0.00945 KA relative to UGCAUGU.
With B4 the binding signal was 0.00933 KA relative to UGCAUGU.
B5 was tested, and the binding signal was 0.0015 KA relative to UGCAUGU.
B6 was tested, and the binding signal was 0.00737 KA relative to UGCAUGU.
B7 was tested, and the binding signal was 0.0178 KA relative to UGCAUGU.
For B8, the binding signal was 0.0103 KA relative to UGCAUGU.
B9 was tested, and the binding signal was 0.0104 KA relative to UGCAUGU.
With B10 the binding signal was 0.0138 KA relative to UGCAUGU.
For B11, the binding signal was 0.00743 KA relative to UGCAUGU.
With B12 the binding signal was 0.00661 KA relative to UGCAUGU.
In the case of B13, the binding signal is reported as 0.00436 KA relative to UGCAUGU.
In the case of B14, the binding signal is reported as 0.00229 KA relative to UGCAUGU.
With B15 the binding signal was 0.0175 KA relative to UGCAUGU.
For B16, the binding signal was 0.00242 KA relative to UGCAUGU.
For B17, the binding signal was 0.0074 KA relative to UGCAUGU.
B18 was tested, and the binding signal was 0.0354 KA relative to UGCAUGU.
B19 was tested, and the binding signal was 0.0185 KA relative to UGCAUGU.
With B20 the binding signal was 0.00176 KA relative to UGCAUGU.
